Data taken from patent US20090291088A1, “THERAPEUTIC COMBINATIONS OF ANTI-IGF-1R ANTIBODIES AND OTHER COMPOUNDS” (Biogen Idec MA Inc., priority 2008, published 2009).

Tests used:
[1] = biological target: T1, recombinant human IGF-1R-10His (Homo sapiens, UniProt P08069); test: SPR, antibodies and Fabs on IGF-1R-His captured via PENTA-His antibody; format: binding; conditions: full-length antibodies, 64 nM to 0.5 nM
T1 construct: denoted hIGF-1R(1-902)-His10, was purchased from R&D systems (Cat. No. 305-GR-050); purchased R&D Systems 305-GR-050

hIGF-1R-Fc = biological target: T2, hIGF-1R-Fc (Homo sapiens, UniProt P08069); test: Antibody cross-blocking ELISA with biotinylated M13-C06 or M14-G11; format: binding
T2 construct: (3) human IGF-1R(1-903)-Fc (hIGF-1R-Fc, Biogen Idec); host or cells: CHO
Protocol: The ability of various antibodies to block M13-C06 or M14-G11 was determined using biotinylated version of both antibodies and hIGF-1R-Fc. Briefly, 50 μL of 2 μg/mL hIGF-1R-Fc in 1×PBS were coated per well of a 96-well clear MaxiSorp plate (Nunc) for 2 hours at room temperature (RT, no shaking). Plates were washed with 1×PBS and blocked overnight at 2-8° C. using a PBS/1% BSA solution. Plates were washed and incubated with a 100 μL mixture of biotinylated M13-C06 or biotinylated M14-G11 (80 ng/mL) and inhibitor antibody for 1 hour at RT. Inhibitor antibodies were serially diluted (5-fold dilutions) from 40 μg/mL to 3 ng/mL. M13-C06 and M14-G11 were biotinylated using EZ-Link Sulfo-NHS-LC-Biotin according to protocol provided by the manufacturer (Pierce Cat. No. 21335). A control was also performed by serial dilution of a non-IGF-1R specific IgG4 isotype control antibody with biotinylated M13-C06 or biotinylated M14-G11. Plates were washed and shaken for 1 hour at RT with 100 μL/well streptavidin-HRP (1:4000 dilution into blocking buffer, Southern Biotech Cat. No. 7100-05). Plates were washed and 100 μL/well SureBlue Reserve TMB Microwell Peroxidase Substrate (KPL, Cat. No. 53-00-01) was added to the wells. Detection of the presence of biotinylated M13-C06 or M14-G11 was performed by reading the absorbance at 650 nm every 5 minutes using a Wallac 1420-041 Multilabel Counter plate reader.

NCI-H23 = test: IGF driven tumor cell growth, CELL TITER-GLO, H-23; format: cell-based, human; conditions: NCI-H23 lung tumor cell line
Protocol: NCI-H23, Calu-6, Colo-205, Panc-1, BxPC-3 (ATCC) tumor lines were purchased from ATCC. Cell lines were grown in complete growth medium containing RPMI-1640 (ATCC), 10% fetal bovine serum (Irvine Scientific Inc.) and 50 μg/ml of Gentamycin (Gibco, Invitrogen). Trypsin-EDTA solution (Sigma) was used for removal of adherent cells from culture vessels. Phosphate buffered saline, pH 7.2, was from MediaTech Inc The 96-well clear bottom plates for luminescent assay was purchased from Wallac Inc.
Cells grown to 80% monolayers were, trypsinized, washed, resuspended and plated into 96-well plates in 200 μl of 2% growth medium at 8×10^3 cells/well for NCI-H23 and Colo-205 cells; and 5×10^3 cells/well for Calu-6, Panc-1 and BxPC-3 cells. After 24 hours, the culture medium was replaced with 100 μl of serum free medium (SFM), and 50 μl of serially diluted antibodies at 4× concentration was added. […] All treatments were done in triplicates. Cell growth was measured using the CELL TITER-GLO™ Luminescent Cell Viability Assay (Promega, Madison, Wis.). […] Luminescence was detected on Wallac (Boston, Mass.) plate reader.
The ability of the selected murine antibodies to inhibit IGF/IGF-1R dependent in vitro growth of several human tumor lines (Lung, H-23, Calu-6; Pancreas, BxPc-3, Panc-1, MiaPaCa and Colon Colo205) was measured by a proliferation assay described in Example 13. […]

[2] = tested on: lung, pancreas, and colon tumor cell lines; test: In vitro growth of lung, pancreas and colon tumor cell lines in medium with 10% FCS or FBS; format: cell-based, human; conditions: 10% Serum in Media
[3] = tested on: IGF-1R expressed on the cynomolgus fibroblast cell line; test: FACS binding to cynomolgus fibroblast cell line; parameters: species or system cynomolgus macaque; conditions: biotinylated antibody
Protocol: The fibroblast cell line was generated from a skin biopsy. […] After washing the cells, streptavidin-PE was added and incubated for additional 30 minutes at 4° C. in the dark. The cells were then washed and 200 ul cold PBS was added followed by fixation with 1% formaldehyde and gentle vortexing. Antibody binding was assessed by FACS analysis.

B1: M14-G11: anti-IGF1-R antibody, competitive blocker of IGF-1 and IGF-2 (antibody, V domains shown)
VH: EVQLLESGGGLVQPGGSLRLSCAASGFTFSNYPMYWVRQAPGKGLEWVSRISSSGGRTVYADSVKGRFTISRDNSKNTLYLQMNSLRAEDTAVYYCARDRWSRSAAEYGLGGYWGQGTLVTVSS
VL: DIQMTQSPDSLAVSLGERATINCKSSQSVLYSSNNKNYLAWYQQKPGQPPKLLIYLASTRESGVPDRFSGSGSGTDFTLTISSLQAEDVAVYYCQQYYSTWTFGQGTKVEIK
modifications: Antibody variable heavy chain sequence; Antibody variable light chain sequence
binding to immobilized recombinant human IGF-1R (SPR) [1]: strong binding
M14-G11 cross-blocking (hIGF-1R-Fc): +++++ (+++++ = antibody binding competition relative to itself (90-100%))

B2: M13-C06.G4.P.agly: full-length hinge-modified aglycosylated human gamma 4, kappa antibody with the binding domain of Fab M13-C06 (antibody)
heavy: EVQLLESGGGLVQPGGSLRLSCAASGFTFSIYRMQWVRQAPGKGLEWVSGISPSGGTTWYADSVKGRFTISRDNSKNTLYLQMNSLRAEDTAVYYCARWSGGSGYAFDIWGQGTMVTVSSASTKGPSVFPLAPCSRSTSESTAALGCLVKDYFPEPVTVSWNSGALTSGVHTFPAVLQSSGLYSLSSVVTVPSSSLGTKTYTCNVDHKPSNTKVDKRV[human IgG4 Fc with S228P T299A (EU numbers) not written out]
light: DIQMTQSPLSLSASVGDRVTITCQASRDIRNYLNWYQQKPGKAPKLLIYDASSLQTGVPSRFGGSGSGTDFSFTIGSLQPEDIATYYCQQFDSLPHTFGQGTKLEIKRTVAAPSVFIFPPSDEQLKSGTASVVCLLNNFYPREAKVQWKVDNALQSGNSQESVTEQDSKDSTYSLSSTLTLSKADYEKHKVYACEVTHQGLSSPVTKSFNRGEC
inhibition of IGF-1 and IGF-2 driven cell proliferation in H-23 (NCI-H23): showed inhibition
percent growth inhibition ([2]; A549 (Lung), 2 nM antibody): 12%
percent growth inhibition ([2]; A549 (Lung), 20 nM antibody): 22%
percent growth inhibition ([2]; A549 (Lung), 200 nM antibody): 41%
percent growth inhibition ([2]; BXPC3 (Pancreas), 0.2 nM antibody): 6%
percent growth inhibition ([2]; BXPC3 (Pancreas), 2 nM antibody): 3%
percent growth inhibition ([2]; BXPC3 (Pancreas), 20 nM antibody): 9%
percent growth inhibition ([2]; BXPC3 (Pancreas), 200 nM antibody): 26%
percent growth inhibition ([2]; Calu-6 (Lung), 0.2 nM antibody): 0%
percent growth inhibition ([2]; Calu-6 (Lung), 2 nM antibody): 0%
percent growth inhibition ([2]; Calu-6 (Lung), 20 nM antibody): 0%
percent growth inhibition ([2]; Calu-6 (Lung), 200 nM antibody): 9%
percent growth inhibition ([2]; Capan-1 (Pancreas), 0.2 nM antibody): 0%
percent growth inhibition ([2]; Capan-1 (Pancreas), 2 nM antibody): 0%
percent growth inhibition ([2]; Capan-1 (Pancreas), 20 nM antibody): 0%
percent growth inhibition ([2]; Capan-1 (Pancreas), 200 nM antibody): 0%
percent growth inhibition ([2]; Capan-2 (Pancreas), 0.2 nM antibody): 41%
percent growth inhibition ([2]; Capan-2 (Pancreas), 2 nM antibody): 45%
percent growth inhibition ([2]; Capan-2 (Pancreas), 20 nM antibody): 47%
percent growth inhibition ([2]; Capan-2 (Pancreas), 200 nM antibody): 38%
percent growth inhibition ([2]; Colo 205 (Colon), 0.2 nM antibody): 0%
percent growth inhibition ([2]; Colo 205 (Colon), 2 nM antibody): 0%
percent growth inhibition ([2]; Colo 205 (Colon), 20 nM antibody): 11%
percent growth inhibition ([2]; Colo 205 (Colon), 200 nM antibody): 28%
percent growth inhibition ([2]; HT-29 (Colon), 0.2 nM antibody): 21%
percent growth inhibition ([2]; HT-29 (Colon), 2 nM antibody): 21%
percent growth inhibition ([2]; HT-29 (Colon), 20 nM antibody): 23%
percent growth inhibition ([2]; HT-29 (Colon), 200 nM antibody): 37%
percent growth inhibition ([2]; NCI-H23 (Lung), 0.2 nM antibody): 5%
percent growth inhibition ([2]; NCI-H23 (Lung), 2 nM antibody): 12%
percent growth inhibition ([2]; NCI-H23 (Lung), 20 nM antibody): 21%
percent growth inhibition ([2]; NCI-H23 (Lung), 200 nM antibody): 47%
percent growth inhibition ([2]; Panc-1 (Pancreas), 0.2 nM antibody): 6%
percent growth inhibition ([2]; Panc-1 (Pancreas), 2 nM antibody): 11%
percent growth inhibition ([2]; Panc-1 (Pancreas), 20 nM antibody): 12%
percent growth inhibition ([2]; Panc-1 (Pancreas), 200 nM antibody): 30%
percent growth inhibition ([2]; SK-MES-1 (Lung), 0.2 nM antibody): 12%
percent growth inhibition ([2]; SK-MES-1 (Lung), 2 nM antibody): 10%
percent growth inhibition ([2]; SK-MES-1 (Lung), 20 nM antibody): 6%
percent growth inhibition ([2]; SK-MES-1 (Lung), 200 nM antibody): 7%
percent growth inhibition ([2]; SW620 (Colon), 0.2 nM antibody): 0%
percent growth inhibition ([2]; SW620 (Colon), 2 nM antibody): 4%
percent growth inhibition ([2]; SW620 (Colon), 20 nM antibody): 6%
percent growth inhibition ([2]; SW620 (Colon), 200 nM antibody): 20%
percent growth inhibition ([2]; WiDr (Colon), 0.2 nM antibody): 35%
percent growth inhibition ([2]; WiDr (Colon), 2 nM antibody): 45%
percent growth inhibition ([2]; WiDr (Colon), 20 nM antibody): 51%
percent growth inhibition ([2]; WiDr (Colon), 200 nM antibody): 57%
binding to cynomolgus fibroblast cell line [3]: concentration dependent manner
